Assay results published in the supplement of paper PMC11417369.
± gives the standard deviation of the averaged measurements. This is one part of the list.

The sequences below were run on PfAP2-LT AP2 domain (GST-tagged) (assay: gcPBM binding intensity (ln(normalized median fluorescence intensity)); higher = stronger DNA binding).
Method in brief: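 For binding intensity, the highest Masliner-normalised natural-log median intensity across replicate spots of either probe orientation was taken. Protein bound to the array was stained with Alexa488 anti-GST antibody and scanned at 488 nm. The protein, GST-tagged P. falciparum DNA-binding domains from E. coli at about 25 μg on average, had been applied for 1 h to an Agilent 4 × 180k array of primer-extended double-stranded 36-bp intergenic genomic probes and negative controls.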

Sequence	gcPBM binding intensity (ln)
AGAAAAAAGAGGGATACACACAAACATATATTTATA [CACACA_site7122]	9.13 ± 0.45
ATATTTTTTTTTTTCACACACATTTATATTGTATTA [CACACA_site5695]	9.4 ± 0.5
TATTAAAATATTCTCACACACCAAAATATGTATGTA [CACACA_site6565]	8.88 ± 0.42
AAAAAAAAAAAAAAAAAAAGAAAAGAAAATAGGGTT [GTGCAC_negctrl_site421]	8.58 ± 0.58
ATTATATTAATTTATAGTACAATATTTATATATATG [XGTACX_site4668]	8.59 ± 0.42
TATATATTACTTTTTTGTACGAATTTTACAACTACG [XGTACX_site3473]	8.88 ± 0.61
TTATTATTATGATTATTATGATGATTATACAACTGT [TGCATGCA_negctrl_site241]	8.85 ± 0.35
AATATACATAACAAGGTGCAAAAAATATTGTTCATA [GTGCAC_site9499]	9.13 ± 0.45
AGGAGGAACAAACAAAACAATAAAAATTATAATAAA [GTGCAC_negctrl_site206]	8.78 ± 0.64
AAAAGACATTTTTTTTTATAAATACACACGTACGTG [TGCATGCA_negctrl_site281]	8.87 ± 0.38
TTCAAAGACACAATCACACACATACATAAATATACA [CACACA_site687]	9.44 ± 0.29
TTCCAAGAAATAATAGTGCATTATTCATTTTAATAA	8.32 ± 0.43
ATATTATAAATTATAGGTACACACAAAAAAAAAAAG [XGTACX_site2637]	9.04 ± 0.52
AAATATATTGCATATATACACACGTATATATATTAA [CACACA_site2759]	8.87 ± 0.3
ATATCAAGCTATGAGAAAAAAAAAAAGAAAAAAAAA [CACACA_negctrl_site1370]	8.45 ± 0.61
AAGTTTTCTTAAAGATGTACTTTTTAAAAATAAAAT [XGTACX_site3063]	8.06 ± 0.4
TGATTCTTTTCAAAGTGTACAGTAATTTTTATGTAA [XGTACX_site8452]	8.45 ± 0.47
TATATAATTCAAAAATGTACATGAAATATAAATATT [XGTACX_site7984]	8.71 ± 0.45
TCTTCAAAGACACAATCACACACATACATAAATATA [CACACA_site8128]	9.29 ± 0.34
AATACGTTTCAAAAATGTACACATATATCATAAATA [XGTACX_site8962]	8.7 ± 0.41
ATCAAAAATGTTATATATATATATATATATATATAT [TGCATGCA_negctrl_site71]	9.89 ± 0.11
GCCATTAATTTATACACACACATTATAACTTTTTAT [CACACA_site6492]	9.36 ± 0.42

Sequence	gcPBM binding intensity (ln)
TTAAATAAAAAAATAACACACATATAAATCTATATG [CACACA_site7482]	8.68 ± 0.38
TATCAGCAATGGAAAACATGCAAAAAATTAATATAT [TGCATGCA_site623]	8.9 ± 0.42
TATAGCTTTCATTATACACACATCAAAAATTTAAAT [CACACA_site227]	8.73 ± 0.42
AGTAATAAATTTTATACATGCATAAAAAAAAAAAAA [TGCATGCA_site661]	8.69 ± 0.46
TTAAAAATCATTTAAGAACACACAAATATTTCCATT [CACACA_site8418]	8.56 ± 0.42
AACTTGTATTTATACACACACACACTAGCTTTTTTT [CACACA_site5132]	9.75 ± 0.26
AGAATTAAAAACAGTTGTACAAAAAGTTGTATAAAT [XGTACX_site411]	9.07 ± 0.56
TATATTTATTTTTAATGTACATATTTAAGAAAACTA [XGTACX_site4920]	8.3 ± 0.42
GACTCATTAAGGATTATTCCTAATGATCAAAAGAAC [CACACA_negctrl_site515]	8.59 ± 0.38
TACATTTTAATATAAGCATGCCTTTAGTTTTTTTCT [TGCATGCA_site829]	8.83 ± 0.48
AATACAAATATATATGCACACACATATACATACATA [CACACA_site8677]	9.41 ± 0.35
CAATTTATTATATATGTGCACATATAATTTTACAAA	8.7 ± 0.37
TAATTATTTTTATTGTTGCACTAGTAAAATTTTAAG [GTGCAC_site9946]	8.39 ± 0.41
TTTCTTTAACAAGTTAAACACACATACATATATACA [CACACA_site8810]	8.76 ± 0.45
ATCATTTCTATATAAGCACACACGTGGAATTTTTTT [CACACA_site2786]	9.06 ± 0.46
AATAAATATAAAAATGCACACACACTAATAAAAAAA [CACACA_site8201]	9.81 ± 0.28
CACATACAGATATATACACACAAATATAAATACACA [CACACA_site6512]	9.52 ± 0.4
TTACTTATATGCATAGTGCAAATTTGGTAAATATCT	8.69 ± 0.33
AAAATAAATATATTATCCACGTTGTATATATATATA [XGTACX_negctrl_site136]	9.07 ± 0.085
TTTTTTTTTTCTTTTTTTTATTATATTAACGGAATT [GTGCAC_negctrl_site104]	8.35 ± 0.57
CATAAAAATTGAAGCACACACACAAAAGAAATACAA [CACACA_site1112]	9.73 ± 0.42
AAAAAGAAATACAAATAATATATATATATATATATT [TGCATGCA_negctrl_site458]	8.97 ± 0.35
